Here are results for 86 molecules from PubChem BioAssay AID1346428 (National Center for Advancing Translational Sciences (NCATS), 2018).

Structures are written as SMILES. Values joined by “and” are separate entries in the source; they are usually repeats but may differ in a detail not shown here. Equal entries are not always repeated. The campaign covered roughly 48,000 compounds. About 1,200 (2.5%) were called active. Roughly 2% stayed inconclusive and do not appear here.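 Rule for the calls: active = activation of at least 60% and not above a set upper limit (about 1 call in 100 departs from these limits); inconclusive = activation of 40% to 60%, or above that upper limit; inactive = activation under 40%.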 Some of the results follow.

Sequence of UniProt O75388 (O75388 whole entry, looked up, the tested form may be a part): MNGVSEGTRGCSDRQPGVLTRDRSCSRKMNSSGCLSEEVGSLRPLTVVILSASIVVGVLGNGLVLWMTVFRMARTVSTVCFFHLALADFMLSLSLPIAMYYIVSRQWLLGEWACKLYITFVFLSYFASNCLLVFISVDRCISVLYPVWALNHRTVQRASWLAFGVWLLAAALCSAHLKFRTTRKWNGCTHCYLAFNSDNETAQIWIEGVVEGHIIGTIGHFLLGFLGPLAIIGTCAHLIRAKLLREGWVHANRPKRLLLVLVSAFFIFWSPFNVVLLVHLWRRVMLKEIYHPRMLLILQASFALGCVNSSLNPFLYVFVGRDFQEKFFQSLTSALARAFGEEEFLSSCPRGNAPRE

For the assay, the target named is Probable G-protein coupled receptor 32 (Homo sapiens) (UniProt O75388). Briefly: qHTS for Agonists of Human Resolvin D1 Receptor DRV1. Conditions: CHO-K1 GPR32 beta-arrestin PathHunter luminescence, 90 min; at 76.9 µM; active compounds read high; zero percent set by DMSO-only wells. In a few lines:
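PathHunter enzyme-fragment complementation, CHO-K1 GPR32 stable line; 2,500 cells/well, overnight attach; cpd 90 min 37 °C 5% CO2; detection reagent 1 h RT; chemiluminescence. DMSO = EC0.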
For the molecule `CC1CCN(C(=O)c2cc(-c3ccc(Br)cc3)on2)CC1`, the activation was inactive: -9.88%.
As for `CCOc1ccc(NC(=O)CCNS(=O)(=O)c2cccc3nonc23)cc1`, the activation is inactive: -16.7%.
As for `COc1ccc2c(c1)c(N1CCCC1=O)c(C(=O)Nc1ccccc1C(F)(F)F)n2C`, the figure is inactive: 3.43%; as for `COc1ccc(C2=C(C)C(=O)N(Cc3ccc(C(=O)NCc4cccc(C)c4)cc3)S2(=O)=O)cc1`, inactive: -8.94%; as for `COc1ccc(-c2noc(N3CCC(C(=O)N4CCN(c5cccc(C)c5C)CC4)CC3)n2)cc1`, inactive: -0.0156%.
For `COc1ccc(C2=NC(c3ccncc3)=Nc3ccc(OC)cc3N2)cc1` the value was inactive: -29%; for `O=C1[C@@H]2CSC(c3ccc(Cl)cc3)N2C(=O)N1c1ccccc1` (stereo partly specified), inactive: -0.85%; for `CC(C)c1ccc(N2C(=O)CSC23C(=O)N(C)c2ccccc23)cc1` (stereo unspecified), inactive: -27.1%.
As for `O=C(COc1ccc(F)cc1)Nc1ccc2nc(SCC(=O)N3CCOCC3)sc2c1`, the activation was inactive: 21.4%.
As for `COc1ccc(-c2noc(COc3cc(C)ccc3C)n2)cc1OC`, the figure is inactive: -18.3%; as for `Cc1cccc(NC(=O)N2CCC3(CC2)Oc2ccccc2C(=O)N3Cc2ccccc2F)c1C`, inactive: -12.7%.
For `O=C(Cc1ccc(F)cc1)Nc1nnc2n1CCS2`, the activation was inactive: -5.16%.
As for `CCOc1ccc(C(=O)c2oc3ccccc3c2NC(=O)Cc2coc3ccc(CC)cc23)cc1`, the figure is inactive: 3.5%; as for `CN(C)CCCN1c2ccccc2CCc2ccccc21`, inactive: -3.53% and inactive: -12.9%.
As for `Cc1cccc(C(=O)NCN2CCN(c3ccccc3C#N)CC2)c1`, the figure is inactive: -8.74%.
For `COc1cccc(C(=O)Nc2c(C(=O)N3CCN(c4ccc(F)cc4)CC3)oc3ccccc23)c1` the value was inactive: -9.87%.
With `COc1cc2ccccc2cc1C(=O)Nc1ccc2oc(-c3ccc(F)cc3Cl)nc2c1`, the activation is inactive: 0.107%.
For `CCc1ccc(CNC(=O)c2c(C)oc3ncnc(N4CCOCC4)c23)cc1` the value was inactive: -8%; for `CC(C)c1ccc(Nc2cc(C(=O)NC3CCCCC3)c3ccccc3n2)cc1`, inactive: -9.15%.
For `CCc1ccc2occ(CC(=O)Nc3ccccc3C(F)(F)F)c2c1` the value was inactive: 0.0964%; for `CCc1cccc(-n2c(=O)c3cccnc3n2CC(=O)Nc2ccc(F)c(C)c2)c1`, inactive: -6.32%; for `CCc1ccccc1OCC(=O)Nc1ccc(S(=O)(=O)Nc2nc(C)cc(C)n2)cc1`, inactive: -8.96%.
As for `CCOc1ccccc1-n1nnc(-c2nsc(NC(=O)c3ccc(C)cc3)n2)c1C`, the figure is inactive: -4.28%; as for `Cc1cccc(N2CCN(CCNC(=O)Nc3ccc(Cl)cc3)CC2)c1C`, inactive: -5.03%; as for `COc1ccccc1NC(=O)CSc1nc(-c2ccc(C(C)(C)C)cc2)c(C#N)c(=O)[nH]1`, inactive: -8.17%.
As to `O=C(NCCn1ccc2ccccc21)c1ccc(Cl)cc1`, the activation was inactive: 40%.
Turning to `COc1ccc(NC(=O)Cn2c(=O)n(Cc3nc(-c4ccccc4)no3)c(=O)c3ccccc32)cc1Cl`, the activation is inactive: -7.03%.
As for `COc1ccc(/C=C/C(=O)Nc2nc3n(n2)C(c2ccc(F)cc2)C=C(c2ccccc2)N3)cc1` (stereo unspecified), the figure is inactive: -12.5%.
For `CCOC(=O)c1c(-c2ccc(C)cc2)csc1NC(=O)c1cc(=O)c2ccc(C)cc2o1` the value was inactive: -2.54%; for `CSc1cccc(Nc2cc(C(=O)NCCCN(C)c3ccccc3)c3ccccc3n2)c1`, inactive: -2.2%; for `COc1cc(C(=O)n2nc(C)c(Sc3ccc(Cl)cc3)c2C)cc(OC)c1OC`, inactive: -12.5%.
With `CC(=O)N1CCc2cc(S(=O)(=O)NC(C(=O)Nc3ccc(C)cc3C)C(C)C)ccc21` (stereo unspecified), the activation was inactive: 10.1%.
For `NC1(C(=O)O)CCc2cc(C(=O)O)ccc21` (stereo unspecified) the value was inactive: 7.47%; for `COc1ccc(NC(=O)C2CCCN(S(=O)(=O)c3ccc(Br)s3)C2)cc1` (stereo unspecified), inactive: -14.3%; for `NC(CO)C(=O)NNCc1ccc(O)c(O)c1O` (stereo unspecified), inactive: 25.3%.
As for `CCCCCCCCCCC(CO)CCCCCCCC` (stereo unspecified), the figure is inactive: -21.5%.
For `COc1cc(NC(=O)c2ccc(C)cc2)ccc1NC(=O)c1cc2ccccc2o1` the value was inactive: -2.51%.
Consider `Cc1ccc(C)c(CN2C(=O)C(=O)c3ccccc32)c1`, for which the activation is inactive: -26.6%.
As for `O=C1CSC2(C(=O)N(Cc3ccccc3F)c3ccccc32)N1c1ccc(F)cc1` (stereo unspecified), the figure is inactive: -4.41%.
As for `COCC(=O)Nc1c(I)c(C(=O)NCC(O)CO)c(I)c(C(=O)N(C)CC(O)CO)c1I` (stereo unspecified), the figure is inactive: 11.7%.
As for `Cc1ccc2onc(CNC(=O)N3CCN(c4cccc(C)c4C)CC3)c2c1`, the figure is inactive: -27.5%; as for `COc1ccc(-c2cc(C(=O)Nc3cccnc3Cl)no2)cc1OC`, inactive: -4.93%; as for `CCSc1nnc2n(-c3cccc(C)c3)c(=O)c3c4c(sc3n12)CCCC4`, inactive: 23.6%.
In the case of `COc1ccc(CCC(=O)N2CCc3c([nH]c4ccccc34)C2c2ccc(F)cc2)cc1` (stereo unspecified), the activation was inactive: -35.3%.
As to `Cc1coc2ccccc2c1=O`, the activation is inactive: 16.4%.
As for `COc1ccc(-n2ccnc2SCC(=O)Nc2ccc(F)cc2F)cc1`, the figure is inactive: -9.09%; as for `Cc1cc2nn(-c3ccccc3)nc2cc1NC(=O)c1cccc2c(Cl)cccc12`, inactive: 3.48%; as for `Cc1nc2cccnc2n1-c1cccc(C(=O)N2CCN(c3ccc(Cl)cc3)CC2)c1`, inactive: 46.3%.
As for `CCN(CCCNC(=O)Cn1ncc2c([nH]c3ccc(C)cc32)c1=O)c1cccc(C)c1`, the figure is inactive: -10.9%.
As for `CCC(=O)N1c2ccccc2CC1C(=O)NCc1ccc(OC(C)C)cc1` (stereo unspecified), the figure is inactive: -0.76%; as for `Cc1cccc(CCNC(=O)c2sc3nc4n(c(=O)c3c2C)CCCC4)c1`, inactive: -8.54%.
On to `COc1ccc(C2CC(=O)Nc3c2c(C)nn3-c2nncc(-c3ccc(C)cc3)n2)c(OC)c1OC` (stereo unspecified), for which the activation is inactive: -5.25%.
As for `CCOC(=O)Nc1ccc(NCc2ccc(F)cc2)nc1N`, the figure is inactive: -4.49% and inactive: -2.33%.
Turning to `CCOc1ccc(-c2nc(SCC(=O)Nc3ccc4c(c3)OCO4)c(-c3ccc(F)cc3)[nH]2)cc1`, the activation is inactive: -12.1%.
For `CCc1ccccc1NC(=O)c1ccc2c(c1)N(Cc1cccc(Cl)c1)C(=O)c1ccccc1S2(=O)=O` the value was inactive: 3.3%.
For `Cc1csc2nc(-c3cccc(NC(=O)C(C)C)c3)cn12` the value was inactive: -14%; for `Cc1cccc(OCC(O)CNC(C)(C)C)c1C` (stereo unspecified), inactive: -3.15%; for `Cc1sc2ncn(CC(=O)N(C)c3ccc(Br)cc3)c(=O)c2c1S(=O)(=O)N1CCC(C)CC1`, inactive: -22.9%.
In the case of `Cc1nc2c(C(=O)NCc3ccccc3)c[nH]n2c(=O)c1Cc1ccccc1Cl`, the activation was inactive: -3.18%.
As for `CC(=O)N1CCc2cc(S(=O)(=O)CCC(=O)N3CCN(c4cccc(C)c4C)CC3)ccc21`, the figure is inactive: 3.47%; as for `Cc1cccc(NC(=O)c2c(C)oc3ncn(CC(C)C)c(=O)c23)n1`, inactive: -4.38%.
Take `COc1ccc(NC(=O)c2noc3c2CCCC3)cc1Cl`: the activation was active: 85.5%.
As for `O=C(NCCc1ccccc1)c1cc(-c2ccc(Cl)cc2)on1`, the figure is inactive: 1.78%; as for `CCCOC1(C(F)(F)F)NC(=O)N(c2ccc(Cl)cc2)C1=O` (stereo unspecified), inactive: -3.78%; as for `Cc1cc(C)c(NC(=O)CSc2nc(=O)[nH]c3c2CCCC3)c(C)c1`, inactive: 11.3%.
For `CC(C)(C)c1ccc(OCC(=O)N2CCC(c3nc4ccccc4s3)CC2)cc1`, the activation was inactive: 24.6%.
For `CCOc1ccc(-c2nnc(Nc3ccc(S(N)(=O)=O)cc3)c3ccccc23)cc1` the value was inactive: 25.4%; for `Cc1oc2c(c(C)cc3oc(=O)c(CC(=O)NCCc4ccccc4)c(C)c32)c1C`, inactive: -12.6%; for `CN1C(C(=O)c2ccccc2)=C(OC(=O)c2ccc(Br)cc2)c2ccccc2S1(=O)=O`, inactive: -30.2%.
As for `O=C(NC(=O)c1ccc(F)cc1)Nc1ccc(-c2cc(C(F)(F)F)nn2-c2ccccc2)cc1`, the figure is inactive: 4.82%; as for `O=C(NCCc1csc2nc(-c3ccccc3F)nn12)c1ccco1`, inactive: 17.7%.
As to `COc1ccccc1NC(=O)c1c(NCc2ccc(OC)c(OC)c2OC)sc2c1CCCC2`, the activation is inactive: -3.2%.
Consider `CCOC(=O)c1c(C)[nH]c(C)c1S(=O)(=O)NCC(=O)Nc1cc(C)ccc1OC`, for which the activation is inactive: 0.249%.
For `Cc1ccc(NC(=O)Nc2ccc3c(c2)N(C)C(=O)c2ccccc2S3)c(C)c1` the value was inactive: -15.1%.
For `COc1ccc(NC(=O)c2cc3c(=O)n(Cc4ccco4)ccc3nc2C)cc1` the value was inactive: -9.93%; for `CCN1CCN(CCCNC(=O)c2cnn(-c3ccccc3)c2C2CCN(C(=O)OC(C)(C)C)CC2)CC1`, inactive: -11%; for `COc1ccc(N2CCN(S(=O)(=O)CCNC(=O)C(c3ccccc3)c3ccccc3)CC2)cc1`, inactive: -23.9%.
For `O=C(O)CCCC[C@@H]1SC[C@@H]2NC(=O)N[C@@H]21` the value was inactive: 7.14%; for `CN1CCN(c2cc3c(cc2F)c(=O)c(C(=O)O)cn3-c2ccc(F)cc2)CC1`, inactive: -21.5%; for `Cc1ccc(-c2c(CN3CCN(c4cccc(C(F)(F)F)c4)CC3)csc2C)cc1`, inactive: -16.1%.
On to `COc1cccc(C2C=C(c3ccc(C)c(C)c3)Nc3nnnn32)c1OC` (stereo unspecified), for which the activation is inactive: -12.3%.
For `CCCCOc1ccc(C(=O)Nc2cccc(-c3nc4cccnc4s3)c2)cc1` the value was inactive: -13.1%; for `COc1ccccc1CNC(=O)C(NS(=O)(=O)c1cccs1)C(C)C` (stereo unspecified), inactive: -9.16%; for `COc1ccc(-c2cc3ccc(O)c(CN4CCOCC4)c3oc2=O)cc1OC`, inactive: 18.3%.
As for `Cc1cc2n(n1)C(c1cc(C(C)(C)C)c(O)cc1O)Nc1ccccc1-2` (stereo unspecified), the figure is inactive: -36.8%.
For `CCOc1ccc(OCC)c(NC(=O)c2nnn(CC(=O)Nc3ccc(C)cc3C)c2N)c1` the value was inactive: -13.6%.
